# Test results as given in PubChem BioAssay (NCI).
#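 Tested at 5 concentrations; 48 h exposure; 96-well plates; endpoints linearly interpolated, else capped at highest concentration. GI50 marks 50% less growth. TGI marks complete inhibition of growth.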
# Tested on: NCI-H322M lung
# Test: NCI tumour cell line growth inhibition, 48 h
Structure (SMILES),GI50 [µM],TGI [µM]
Cc1ccc(C(=O)Nc2cc(-n3ccnc3C)cc(C(F)(F)F)c2)cc1C#Cc1cnc2cccnn12,7.74,> 29.3
CN(C(=O)c1ccc(C(C)(C)C)cc1)c1sc2c(c1C#N)CCC(=O)C2,13.7,38.1
C[C@@H]1CN(c2ccc3ncc(C#Cc4cncc(C(=O)Nc5ccc(CN6CCN(C)CC6)c(C(F)(F)F)c5)c4)n3n2)C[C@@H](C)O1,0.343,0.926
O=C(/C=C/c1ccc(Br)cc1)c1nc2ccccc2n1Cc1ccc(Br)cc1,> 100,> 100
